Data from a collection of fitness landscapes (doi:10.1016/j.celrep.2020.107928).
Over roughly 81,000 sequences, “one-hybrid fitness for binding parS DNA” has its median near -0.17; the highest 2% begin near 0.51. The list shows a part of the results.

B1: Caulobacter ParB omega fusion; a variant is named by its letters at X, in order, B8GW30 (parent)
chain: MESVVVGEPGMSEGRRGLGRGLSALLGEVDAAPAQAPGEQLGGSREAPIEILQRNPDQPRRTFREEDLEDLSNSIREKGVLQPILVRPSPDTAGEYQIVAGERAWRAAQRAGLKTVPIMVRELDDLAVLEIGIIENVQRADLNVLEEALSYKVLMEKFERTQENIAQTIGKSXSHVANXMRLLXLPDEVQSYLVSGELTAXHARAIAAAADPVALAKQIIEGGLSVRETEALARKAPNLSAGKSKGGRPPRVKDTDTQALESDLSSVLGLDVSIDHRGSTGTLTITYATLEQLDDLCNRLTRGI

Variants of: B1
Experiment: one-hybrid fitness for binding parS DNA (scaled: cognate 1, non-cognate 0); higher = stronger binding
Conditions: with parS DNA site
Outline: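 The reporter was HIS3, with the binding site 19 bp from the promoter, in E. coli USO used for bacterial one-hybrid selection of Caulobacter ParB libraries with four specificity codons randomised. Growth was on M9 lacking histidine, with 0.1 mM IPTG and 5 mM 3-AT, for 48 hours at 37°C. Illumina sequencing covered plasmids before and after selection; three replicate libraries were pooled and variants with under 10 reads dropped. A fitness score is the log change in variant-to-wild-type read ratio, rescaled to the cognate and non-cognate references.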

| Variant | one-hybrid fitness for binding parS DNA |
| --- | --- |
| DMTF | ≤ 0.2 |
| HSAC | ≤ 0.2 |
| TINT | ≤ 0.2 |
| ESPF | ≤ 0.2 |
| RQVC | 0.828 |
| RLIG | 0.934 |
| RMSQ | 0.214 |
| RIIC | 0.901 |
| GATC | ≤ 0.2 |
| WPIS | ≤ 0.2 |
| TKLV | ≤ 0.2 |
| VAIW | ≤ 0.2 |
| TYLQ | ≤ 0.2 |
| DLTL | ≤ 0.2 |
| MTHW | ≤ 0.2 |
| QTIM | ≤ 0.2 |
| YTIM | ≤ 0.2 |
| QPVW | ≤ 0.2 |
| QSIN | ≤ 0.2 |
| KCHG | ≤ 0.2 |
| QDQY | ≤ 0.2 |
| MLFR | ≤ 0.2 |
| GVYG | ≤ 0.2 |
| LNFC | ≤ 0.2 |

| Variant | one-hybrid fitness for binding parS DNA |
| --- | --- |
| HQMP | ≤ 0.2 |
| MLHG | ≤ 0.2 |
| HMIV | ≤ 0.2 |
| IRIT | ≤ 0.2 |
| FHMG | ≤ 0.2 |
| TLWT | ≤ 0.2 |
| PSPM | ≤ 0.2 |
| IGDC | ≤ 0.2 |
| RFIR | ≤ 0.2 |
| KVMK | ≤ 0.2 |
| SPDW | ≤ 0.2 |
| GTIT | ≤ 0.2 |
| SQRA | ≤ 0.2 |
| MRSC | ≤ 0.2 |
| AGLP | ≤ 0.2 |
| YHKC | ≤ 0.2 |
| SIMT | ≤ 0.2 |
| DRLD | ≤ 0.2 |
| TNVI | ≤ 0.2 |
| GVPQ | ≤ 0.2 |
| FYIR | ≤ 0.2 |
| DTVR | ≤ 0.2 |
| PKKL | ≤ 0.2 |
| RAHY | 0.472 |

| Variant | one-hybrid fitness for binding parS DNA |
| --- | --- |
| PVSD | ≤ 0.2 |
| TAQS | ≤ 0.2 |
| LKYR | ≤ 0.2 |
| TALM | ≤ 0.2 |
| RMGS | 0.988 |
| QGQA | ≤ 0.2 |
| SNQC | ≤ 0.2 |
| RHHG | 0.967 |
| TNCT | ≤ 0.2 |
| QHWN | ≤ 0.2 |
| VYSE | ≤ 0.2 |
| PMVD | ≤ 0.2 |
| TTFA | ≤ 0.2 |
| RHMQ | ≤ 0.2 |
| TKPL | ≤ 0.2 |
| RYDA | 0.559 |
| HERM | ≤ 0.2 |
| STIS | ≤ 0.2 |
| FNSY | ≤ 0.2 |
| PAHA | ≤ 0.2 |
| KDKW | ≤ 0.2 |
| FKTI | ≤ 0.2 |
| DREE | ≤ 0.2 |
| GIFG | ≤ 0.2 |

| Variant | one-hybrid fitness for binding parS DNA |
| --- | --- |
| NYMG | ≤ 0.2 |
| SVKG | ≤ 0.2 |
| FGYC | ≤ 0.2 |
| TLHE | ≤ 0.2 |
| LNQQ | ≤ 0.2 |
| HYRS | ≤ 0.2 |
| PWPR | ≤ 0.2 |
| KSSH | ≤ 0.2 |
| QEAV | ≤ 0.2 |
| QLGP | ≤ 0.2 |
| VAVV | ≤ 0.2 |
| KNGC | ≤ 0.2 |
| TRKW | ≤ 0.2 |
| PSAS | ≤ 0.2 |
| HHGA | ≤ 0.2 |
| GWLR | ≤ 0.2 |
| HGSV | ≤ 0.2 |
| STSF | ≤ 0.2 |
| RFQL | ≤ 0.2 |
| RGMS | 0.672 |
| RMTI | ≤ 0.2 |
| FWPS | ≤ 0.2 |
| FASR | ≤ 0.2 |
| YMPV | ≤ 0.2 |

| Variant | one-hybrid fitness for binding parS DNA |
| --- | --- |
| YWTT | ≤ 0.2 |
| AMCC | ≤ 0.2 |
| HMIT | ≤ 0.2 |
| TKHA | ≤ 0.2 |
| NIYR | ≤ 0.2 |
| MFLM | ≤ 0.2 |
| CHCG | ≤ 0.2 |
| TFPP | ≤ 0.2 |
| TVLR | ≤ 0.2 |
| HFIG | ≤ 0.2 |
| QFSY | ≤ 0.2 |
| YSDR | ≤ 0.2 |
| WWES | ≤ 0.2 |
| LTYY | ≤ 0.2 |
| AHYL | ≤ 0.2 |
| VWPP | ≤ 0.2 |
| VLRY | ≤ 0.2 |
| DDAR | ≤ 0.2 |
| SAAR | ≤ 0.2 |
| NCCL | ≤ 0.2 |
| LEAV | ≤ 0.2 |
| PSFW | ≤ 0.2 |
| KSVG | ≤ 0.2 |
| VKLW | ≤ 0.2 |

| Variant | one-hybrid fitness for binding parS DNA |
| --- | --- |
| GSIL | ≤ 0.2 |
| THGR | ≤ 0.2 |
| VSGF | ≤ 0.2 |
| TKWY | ≤ 0.2 |
| PRHF | ≤ 0.2 |
| LMMA | ≤ 0.2 |
| SDKS | ≤ 0.2 |
| TTYI | ≤ 0.2 |
| NALW | ≤ 0.2 |
| KYQA | ≤ 0.2 |
| HEVS | ≤ 0.2 |
| EYLY | ≤ 0.2 |
| QFDR | ≤ 0.2 |
| RLGS | 0.981 |
| TAMT | ≤ 0.2 |
| GLKL | ≤ 0.2 |
| LTHR | ≤ 0.2 |
| RIRQ | ≤ 0.2 |
| TLME | ≤ 0.2 |
| PYRR | ≤ 0.2 |
| MPTL | ≤ 0.2 |
| MPLD | ≤ 0.2 |
| KRQQ | ≤ 0.2 |
| LIRC | ≤ 0.2 |

| Variant | one-hybrid fitness for binding parS DNA |
| --- | --- |
| PVLE | ≤ 0.2 |
| HFKS | ≤ 0.2 |
| SHME | ≤ 0.2 |
| QGVH | ≤ 0.2 |
| YLPV | ≤ 0.2 |
| VALE | ≤ 0.2 |
| PEAP | ≤ 0.2 |
| KRDG | ≤ 0.2 |
| TRTP | ≤ 0.2 |
| VLPF | ≤ 0.2 |
| CCKS | ≤ 0.2 |
| VLFL | ≤ 0.2 |
| SVEI | ≤ 0.2 |
| ETIH | ≤ 0.2 |
| HNVS | ≤ 0.2 |
| NIDH | ≤ 0.2 |
| AHWC | ≤ 0.2 |
| GIDF | ≤ 0.2 |
| PYNA | ≤ 0.2 |
| MKCF | ≤ 0.2 |
| WGQC | ≤ 0.2 |
| RLQG | 1.01 |
| QPFR | ≤ 0.2 |
| KELR | ≤ 0.2 |

| Variant | one-hybrid fitness for binding parS DNA |
| --- | --- |
| YVAM | ≤ 0.2 |
| SPQV | ≤ 0.2 |
| PNCG | ≤ 0.2 |
| QWGA | ≤ 0.2 |
| YTPS | ≤ 0.2 |
| QPNR | ≤ 0.2 |
| FVIE | ≤ 0.2 |
| HHLT | ≤ 0.2 |
| TGCT | ≤ 0.2 |
| YRLV | ≤ 0.2 |
| WRSI | ≤ 0.2 |
| KFPI | ≤ 0.2 |
| IISE | ≤ 0.2 |
| YDLE | ≤ 0.2 |
| SPIY | ≤ 0.2 |
| MQTK | ≤ 0.2 |
| ESRR | ≤ 0.2 |
| WITF | ≤ 0.2 |
| ATYK | ≤ 0.2 |
| QWTN | ≤ 0.2 |
| AQNL | ≤ 0.2 |
| VNTQ | ≤ 0.2 |
| LADY | ≤ 0.2 |
| INRI | ≤ 0.2 |

| Variant | one-hybrid fitness for binding parS DNA |
| --- | --- |
| QNRD | ≤ 0.2 |
| QYWA | ≤ 0.2 |
| FEDR | ≤ 0.2 |
| KRVN | ≤ 0.2 |
| SFNY | ≤ 0.2 |
| PCRG | ≤ 0.2 |
| TYQM | ≤ 0.2 |
| MWEI | ≤ 0.2 |
| RRYC | 0.63 |
| QSCA | ≤ 0.2 |
| YVVR | ≤ 0.2 |
| WTTC | ≤ 0.2 |
| RGRA | 0.496 |
| QWSS | ≤ 0.2 |
| QNAY | ≤ 0.2 |
| RHKF | 0.255 |
| LLPW | ≤ 0.2 |
| LIVM | ≤ 0.2 |
| CRSH | ≤ 0.2 |
| MARF | ≤ 0.2 |
| IIMT | ≤ 0.2 |
| PDDY | ≤ 0.2 |
| QREP | ≤ 0.2 |
| FLVY | ≤ 0.2 |

| Variant | one-hybrid fitness for binding parS DNA |
| --- | --- |
| RRPV | ≤ 0.2 |
| DHRS | ≤ 0.2 |
| YPRI | ≤ 0.2 |
| QKWL | ≤ 0.2 |
| PTSH | ≤ 0.2 |
| TLEV | ≤ 0.2 |
| SSFC | ≤ 0.2 |
| NHSD | ≤ 0.2 |
| RPRG | ≤ 0.2 |
| GMSF | ≤ 0.2 |
| QKEV | ≤ 0.2 |
| QMLC | ≤ 0.2 |
| MCPM | ≤ 0.2 |
| GGRM | ≤ 0.2 |
| FQHC | ≤ 0.2 |
| IKLS | ≤ 0.2 |
| QGWW | ≤ 0.2 |
| EGNC | ≤ 0.2 |
| SLMC | ≤ 0.2 |
| DKRT | ≤ 0.2 |
| MLER | ≤ 0.2 |
| YNQM | ≤ 0.2 |
| YQPL | ≤ 0.2 |
| CDDS | ≤ 0.2 |

| Variant | one-hybrid fitness for binding parS DNA |
| --- | --- |
| PQNF | ≤ 0.2 |
| NCFP | ≤ 0.2 |
| KELD | ≤ 0.2 |
| RNNR | ≤ 0.2 |
| TNTF | ≤ 0.2 |
| CIIC | ≤ 0.2 |
| RFFM | ≤ 0.2 |
| KCND | ≤ 0.2 |
| DPGM | ≤ 0.2 |
| CTQV | ≤ 0.2 |
| GVIV | ≤ 0.2 |
| DMDL | ≤ 0.2 |
| ESPG | ≤ 0.2 |
| PFEG | ≤ 0.2 |
| RDIS | ≤ 0.2 |
| ICKC | ≤ 0.2 |
| EEVS | ≤ 0.2 |
| IARG | ≤ 0.2 |
| ACSM | ≤ 0.2 |
| RCIN | 0.372 |
| VQLT | ≤ 0.2 |
| DPHK | ≤ 0.2 |
| PRCI | ≤ 0.2 |
| QCGW | ≤ 0.2 |

| Variant | one-hybrid fitness for binding parS DNA |
| --- | --- |
| PPCR | ≤ 0.2 |
| NAVR | ≤ 0.2 |
| RIAS | 1.04 |
| RGYA | 0.225 |
| DPEK | ≤ 0.2 |
| CLER | ≤ 0.2 |
| TADT | ≤ 0.2 |
| FRSL | ≤ 0.2 |
| QYGT | ≤ 0.2 |
| IPTW | ≤ 0.2 |
| NIER | ≤ 0.2 |
| QTFM | ≤ 0.2 |
| SADT | ≤ 0.2 |
| TARH | ≤ 0.2 |
| QQIY | ≤ 0.2 |
| FKPG | ≤ 0.2 |
| LSMA | ≤ 0.2 |
| RTEG | 0.893 |
| RDDL | ≤ 0.2 |
| SDFR | ≤ 0.2 |
| SPKR | ≤ 0.2 |
| NTHT | ≤ 0.2 |
| VSKN | ≤ 0.2 |
| HYPA | ≤ 0.2 |

| Variant | one-hybrid fitness for binding parS DNA |
| --- | --- |
| TNTI | ≤ 0.2 |
| PKIT | ≤ 0.2 |
| KKMT | ≤ 0.2 |
| AGLC | ≤ 0.2 |
| CFTT | ≤ 0.2 |
| MSSD | ≤ 0.2 |
| QSMK | ≤ 0.2 |
| KTRS | ≤ 0.2 |
| VSWG | ≤ 0.2 |
| GTVG | ≤ 0.2 |
| RKWA | 0.58 |
| QADY | ≤ 0.2 |
| VKAQ | ≤ 0.2 |
| TSPK | ≤ 0.2 |
| CTMS | ≤ 0.2 |
| QTWW | ≤ 0.2 |
| LASA | ≤ 0.2 |
| TTRI | ≤ 0.2 |
